One assay deals with HSkMC. The experiment in a line: cytotoxicity call (relative viability < 0.9). Particulars: 10 µM.
The next assay concerns HepG2. The experiment in a line: cytotoxicity call (relative viability < 0.9). Particulars: 10 µM.
Another assay deals with S. aureus RN4220. Put plainly: growth inhibition call (relative growth <= 0.2). Particulars: 50 µM.

This is an account of results in the antibiotic and cytotoxicity screens of Wong et al. (2023).

The structures appear in SMILES notation. Some of the results follow.

In the case of `CN(C)Cc1c(C(=O)N/N=C/c2ccncc2)nnn1-c1nonc1N`, in the assay with HSkMC, the cytotoxicity call is “inactive”. For the same molecule, the cytotoxicity call in the assay with HepG2 was “active”. For the same molecule, in the assay with S. aureus RN4220, the growth inhibition call was “inactive”.
Consider `CNC(=O)CN1CCO[C@H]2CN(C(=O)c3cnccn3)C[C@@H]21`, for which the cytotoxicity call in the assay with HSkMC and in the assay with HepG2 was “inactive” in each case. For the same molecule, the growth inhibition call in the assay on S. aureus RN4220 is “inactive”.
Take `COc1ccc(S(=O)(=O)N(C)C[C@@H]2Oc3c(NC(=O)Nc4c(C)noc4C)cccc3C(=O)N([C@H](C)CO)C[C@H]2C)cc1`: the cytotoxicity call in the assay with HSkMC and in the assay on HepG2 was “inactive” throughout. In addition, the growth inhibition call in the assay with S. aureus RN4220 was “inactive”.
`Cl.O=C(Nc1ccccc1)OCC(CN1CCCCC1)OC(=O)Nc1ccccc1` (stereo unspecified): the cytotoxicity call in the assay on HSkMC is “inactive”. Moreover, in the assay with HepG2, the cytotoxicity call was “active”. For the same molecule, the growth inhibition call in the assay with S. aureus RN4220 was “inactive”.
Take `C[C@@H]1CN([C@H](C)CO)C(=O)c2cc(NC(=O)CCC(F)(F)F)ccc2O[C@@H](C)CCCCO[C@@H]1CN(C)Cc1ccc(Cl)c(Cl)c1`: the cytotoxicity call in the assay with HSkMC and in the assay on HepG2 was “active” in each case. Besides, the growth inhibition call with S. aureus RN4220 was “inactive”.
As to `COCCOC(=O)N1C(=O)[C@@]2(c3cc(C#Cc4ccc(OC)cc4)ccc31)[C@H](c1ccc(OCCO)cc1)N1[C@H](c3ccccc3)[C@H](c3ccccc3)OC(=O)[C@H]1[C@@H]2C(=O)NC[C@H](O)c1ccccc1`, the cytotoxicity call in the assay with HSkMC and in the assay on HepG2 was “inactive” in each case. The growth inhibition call in the assay with S. aureus RN4220 was “inactive”.
As to `C[C@@H]1CCCCO[C@@H](CN(C)S(=O)(=O)c2cccs2)[C@@H](C)CN([C@H](C)CO)C(=O)c2cc(NC(=O)Nc3cccc4ccccc34)ccc2O1`, the cytotoxicity call in the assay with HSkMC and in the assay on HepG2 was “inactive” each time. Also, the growth inhibition call in the assay with S. aureus RN4220 was “inactive”.
For `C[C@@H]1CN([C@@H](C)CO)C(=O)c2cccc(NC(=O)Nc3ccc(C(F)(F)F)cc3)c2O[C@@H]1CN(C)Cc1ccc(C(=O)O)cc1`, the cytotoxicity call with HSkMC and in the assay with HepG2 was “inactive” each time. Also, the growth inhibition call in the assay with S. aureus RN4220 was “inactive”.
Turning to `C[C@@H]1CN([C@@H](C)CO)C(=O)c2cccc(NS(C)(=O)=O)c2O[C@@H]1CN(C)C(=O)Nc1ccc(C(F)(F)F)cc1`, the cytotoxicity call with HSkMC and in the assay on HepG2 was “inactive” throughout. In the assay on S. aureus RN4220, the growth inhibition call is “active”.
In the case of `C[C@@H]1CN([C@@H](C)CO)C(=O)c2cc(NC(=O)CCCCCC(=O)Nc3ccccc3N)ccc2O[C@H]1CN(C)S(C)(=O)=O`, the cytotoxicity call in the assay on HSkMC and in the assay with HepG2 was “inactive” each time. In the assay on S. aureus RN4220, the growth inhibition call is “inactive”.
On to `C[C@@H]1CN([C@@H](C)CO)C(=O)c2cc(NC(=O)Nc3cccc4ccccc34)ccc2O[C@@H](C)CCCCO[C@H]1CN(C)C(=O)Nc1ccc2c(c1)OCO2`, for which the cytotoxicity call with HSkMC and in the assay with HepG2 was “inactive” each time. Moreover, the growth inhibition call in the assay on S. aureus RN4220 was “inactive”.
On to `NC(=NC(=O)N1CCOCC1)c1ccccc1`, for which the cytotoxicity call in the assay on HSkMC and with HepG2 was “inactive” each time. For the same molecule, in the assay with S. aureus RN4220, the growth inhibition call is “inactive”.
As for `C[N+](C)(C)CCCCCCNC(=O)[C@@H]1C[C@@H]2C(=O)N[C@@H](Cc3ccccc3)C(=O)N2[C@@H]1c1cccc(OCCO)c1`, the cytotoxicity call in the assay on HSkMC and in the assay with HepG2 was “inactive” each time. For the same molecule, the growth inhibition call with S. aureus RN4220 is “inactive”.
Turning to `C[C@@H]1CN([C@H](C)CO)C(=O)c2cccc(NC(=O)Nc3ccc(F)cc3)c2O[C@@H]1CN(C)Cc1ccc(Cl)c(Cl)c1`, the cytotoxicity call with HSkMC and with HepG2 was “inactive” each time. Also, in the assay on S. aureus RN4220, the growth inhibition call is “inactive”.
Consider `Cc1noc(C)c1NC(=O)N(C)C[C@H]1Oc2ccc(NC(=O)C3CC3)cc2C(=O)N([C@@H](C)CO)C[C@H]1C`, for which the cytotoxicity call in the assay on HSkMC and in the assay on HepG2 was “inactive” in each case. The growth inhibition call with S. aureus RN4220 was “inactive”.
In the case of `C[C@@H]1CCCCO[C@@H](CN(C)S(=O)(=O)c2ccccc2)[C@@H](C)CN([C@H](C)CO)C(=O)c2cc(NC(=O)Nc3ccc(C(F)(F)F)cc3)ccc2O1`, the cytotoxicity call in the assay with HSkMC and in the assay on HepG2 was “inactive” each time. Moreover, the growth inhibition call in the assay with S. aureus RN4220 was “inactive”.
Consider `O=C(C[C@@H]1C=C[C@H](NC(=O)Cc2ccccn2)[C@H](CO)O1)NCCc1ccncc1`, for which the cytotoxicity call in the assay on HSkMC and with HepG2 was “inactive” throughout. For the same molecule, the growth inhibition call in the assay with S. aureus RN4220 is “inactive”.
As for `CC(=O)c1ccc2ccccc2c1O`, the cytotoxicity call with HSkMC and in the assay with HepG2 was “inactive” throughout. Further, the growth inhibition call in the assay with S. aureus RN4220 was “inactive”.
Consider `C[C@@H]1CN([C@@H](C)CO)C(=O)c2cccc(NC(=O)c3ccc(-c4nccs4)cc3)c2O[C@H]1CN(C)C(=O)NC1CCCCC1`, for which the cytotoxicity call with HSkMC and in the assay with HepG2 was “inactive” each time. The growth inhibition call in the assay on S. aureus RN4220 is “inactive”.
For the molecule `COC(=O)C(CC#Cc1ccc2c(c1)[C@]1(C(=O)N2)[C@H](c2ccccc2OCCO)N2[C@H](c3ccccc3)[C@H](c3ccccc3)OC(=O)[C@H]2[C@@H]1C(=O)N1CCc2cc(OC)c(OC)cc2C1)C(=O)OC`, the cytotoxicity call in the assay on HSkMC and in the assay with HepG2 was “inactive” in each case. For the same molecule, the growth inhibition call in the assay on S. aureus RN4220 is “inactive”.
For the molecule `C[C@H](CO)N1C[C@H](C)[C@@H](CN(C)Cc2ccc(Cl)c(Cl)c2)OCCCC[C@H](C)Oc2ccc(N(C)C)cc2C1=O`, the cytotoxicity call with HSkMC and with HepG2 was “inactive” in each case. For the same molecule, the growth inhibition call in the assay on S. aureus RN4220 was “inactive”.
With `CC(=O)NCc1c(I)c(NC(C)=O)c(I)c(C(=O)O)c1I`, the cytotoxicity call with HSkMC and in the assay with HepG2 was “inactive” in each case. For the same molecule, the growth inhibition call with S. aureus RN4220 was “inactive”.
On to `COc1ccccc1CN1C[C@@H](C)[C@H](OC)CN(C)C(=O)c2cc(NC(=O)Nc3ccccc3OC)ccc2OC[C@H]1C`, for which the cytotoxicity call with HSkMC and in the assay with HepG2 was “inactive” in each case. For the same molecule, the growth inhibition call in the assay on S. aureus RN4220 is “inactive”.
On to `C[C@@H]1CN([C@H](C)CO)C(=O)c2cc(C#CCN(C)C)cnc2O[C@@H]1CN(C)S(=O)(=O)c1cn(C)cn1`, for which the cytotoxicity call in the assay with HSkMC and in the assay on HepG2 was “inactive” throughout. Also, the growth inhibition call with S. aureus RN4220 is “inactive”.
As for `CC(C)NC(=O)N(C)C[C@H]1Oc2ccc(NC(=O)CCCN(C)C)cc2CC(=O)N([C@@H](C)CO)C[C@@H]1C`, the cytotoxicity call in the assay with HSkMC and in the assay with HepG2 was “inactive” in each case. Further, the growth inhibition call with S. aureus RN4220 was “inactive”.
Consider `O=C(C[C@@H]1CC[C@H]2[C@@H](COC[C@@H](O)CN2C(=O)Nc2ccc(Cl)c(Cl)c2)O1)NCc1ccncc1`, for which the cytotoxicity call in the assay with HSkMC and with HepG2 was “inactive” each time. In addition, the growth inhibition call with S. aureus RN4220 is “active”.
With `Cc1ccc(-c2nc(Nc3cccc(Cl)c3)sc2C)cc1`, the cytotoxicity call in the assay on HSkMC (human skeletal muscle cells) and with HepG2 was “inactive” in each case. Moreover, in the assay on S. aureus RN4220, the growth inhibition call is “inactive”.
